At least one compound was matched to its structure with a doubt left. *1 amine or outer side, *2 acyl side, *3 side chain or, on linkers, in order; H or OH if unused. Where a SMILES comes first, the peptide text is derived from it. Side-chain parts run from the residue outwards. γGlu = O=C(O)[C@H](CCC(=O)[*:2])N[*:1]
Experiment: ThT fibrillation assay for physical stability (lag time, recovery)
Assay type: physicochemical
Details: for ThT assay [Lag time]: absence of increased ThT fluorescence noted as lag time of 45 hours; for ThT assay [Recovery]: peptide concentration in filtered supernatant after ThT assay as percentage of initial

| Structure (SMILES) | ThT assay [Lag time] [h] | ThT assay [Recovery] [%] |
| --- | --- | --- |
| CC(=O)N[C@@H](CCC(=O)N[C@@H](CCC(=O)N[C@@H](CCC(=O)N[C@@H](CCC(=O)NCCCC[C@H](NC(=O)[C@@H](NC(=O)[C@H](Cc1ccccc1)NC(=O)[C@H](CCC(=O)O)NC(=O)[C@H](C)NC(=O)[C@H](C)NC(=O)[C@H](CCCNC(=N)N)NC(=O)[C@H](CCCNC(=N)N)NC(=O)[C@@H](NC(=O)[C@H](CC(=O)O)NC(=O)[C@H](CC(C)C)NC(=O)[C@H](Cc1ccc(O)cc1)NC(=O)[C@H](CCCCN)NC(=O)[C@H](CO)NC(=O)[C@H](Cc1ccc(O)cc1)NC(=O)[C@H](CC(=O)O)NC(=O)[C@H](CO)NC(=O)[C@@H](NC(=O)[C@H](Cc1ccccc1)NC(=O)[C@@H](NC(=O)CNC(=O)[C@H](CCC(N)=O)NC(=O)CNC(=O)[C@@H](N)Cc1c[nH]cn1)[C@@H](C)O)[C@@H](C)O)C(C)C)C(C)C)C(=O)N[C@@H](Cc1c[nH]c2ccccc12)C(=O)N[C@@H](CC(C)C)C(=O)N[C@@H](CC(C)C)C(=O)N[C@@H](CO)C(=O)N[C@H](C(=O)O)[C@@H](C)O)C(=O)O)C(=O)O)C(=O)O)C(=O)O [Example 49, N^ε24-[(4S)-4-[[(4S)-4-[[(4S)-4-[[(4S)-4-acetamido-4-carboxybutanoyl]amino]-4-carboxybutanoyl]amino]-4-carboxybutanoyl]amino]-4-carboxybutanoyl]-[Gly^2,Val^16,Ala^20,Glu^21,Lys^24,Leu^27,Ser^28]-Glucagon] (H-HGQGTFTSDYSKYLDVRRAAEFVK([γGlu-γGlu-γGlu-γGlu-Ac])WLLST-OH) | 45 | 100 |
| CC(=O)N[C@@H](CCC(=O)N[C@@H](CCC(=O)N[C@@H](CCC(=O)N[C@@H](CCC(=O)NCCCC[C@H](NC(=O)[C@@H](NC(=O)[C@H](CO)NC(=O)[C@H](CC(C)C)NC(=O)[C@H](CC(C)C)NC(=O)[C@H](Cc1c[nH]c2ccccc12)NC(=O)[C@H](CCC(N)=O)NC(=O)[C@@H](NC(=O)[C@H](Cc1ccccc1)NC(=O)[C@H](CC(=O)O)NC(=O)[C@H](CCC(N)=O)NC(=O)[C@H](C)NC(=O)[C@H](CCCNC(=N)N)NC(=O)[C@H](CCCNC(=N)N)NC(=O)[C@H](CO)NC(=O)[C@H](CC(=O)O)NC(=O)[C@H](CC(C)C)NC(=O)[C@H](Cc1ccc(O)cc1)NC(=O)[C@H](CCCCN)NC(=O)[C@H](CO)NC(=O)[C@H](Cc1ccc(O)cc1)NC(=O)[C@H](CC(=O)O)NC(=O)[C@H](CO)NC(=O)[C@@H](NC(=O)[C@H](Cc1ccccc1)NC(=O)[C@@H](NC(=O)CNC(=O)[C@H](CCC(N)=O)NC(=O)[C@H](CO)NC(=O)[C@@H](N)Cc1c[nH]cn1)[C@@H](C)O)[C@@H](C)O)C(C)C)[C@@H](C)O)C(=O)O)C(=O)O)C(=O)O)C(=O)O)C(=O)O [Example 51, N^α([Leu^27,Ser^28]-Glucagonyl)-N^ε[(4S)-4-[[(4S)-4-[[(4S)-4-[[(4S)-4-acetamido-4-carboxybutanoyl]amino]-4-carboxybutanoyl]amino]-4-carboxybutanoyl]amino]-4-carboxybutanoyl]Lys] | 35 | 98 |
| CC(=O)N[C@@H](CCC(=O)N[C@@H](CCC(=O)N[C@@H](CCC(=O)N[C@@H](CCC(=O)NCCCC[C@H](NC(=O)[C@H](CO)NC(=O)[C@H](CC(C)C)NC(=O)[C@H](CC(C)C)NC(=O)[C@H](Cc1c[nH]c2ccccc12)NC(=O)[C@H](CCC(N)=O)NC(=O)[C@@H](NC(=O)[C@H](Cc1ccccc1)NC(=O)[C@H](CC(=O)O)NC(=O)[C@H](CCC(N)=O)NC(=O)[C@H](C)NC(=O)[C@H](CCCNC(=N)N)NC(=O)[C@H](CCCNC(=N)N)NC(=O)[C@H](CO)NC(=O)[C@H](CC(=O)O)NC(=O)[C@H](CC(C)C)NC(=O)[C@H](Cc1ccc(O)cc1)NC(=O)[C@H](CCCCN)NC(=O)[C@H](CO)NC(=O)[C@H](Cc1ccc(O)cc1)NC(=O)[C@H](CC(=O)O)NC(=O)[C@H](CO)NC(=O)[C@@H](NC(=O)[C@H](Cc1ccccc1)NC(=O)[C@@H](NC(=O)CNC(=O)[C@H](CCC(N)=O)NC(=O)[C@H](CO)NC(=O)[C@@H](N)Cc1c[nH]cn1)[C@@H](C)O)[C@@H](C)O)C(C)C)C(=O)O)C(=O)O)C(=O)O)C(=O)O)C(=O)O [Example 52, N^ε^29-[(4S)-4-[[(4S)-4-[[(4S)-4-[[(4S)-4-acetamido-4-carboxybutanoyl]amino]-4-carboxybutanoyl]amino]-4-carboxybutanoyl]amino]-4-carboxybutanoyl]-[Leu^27,Ser^28,Lys^29]-Glucagon] | 45 | 100 |
| CC(=O)N[C@@H](CCC(=O)N[C@@H](CCC(=O)N[C@@H](CCC(=O)N[C@@H](CCC(=O)NCCCC[C@H](NC(=O)[C@H](CC(C)C)NC(=O)[C@H](CC(C)C)NC(=O)[C@H](Cc1c[nH]c2ccccc12)NC(=O)[C@H](CCC(N)=O)NC(=O)[C@@H](NC(=O)[C@H](Cc1ccccc1)NC(=O)[C@H](CC(=O)O)NC(=O)[C@H](CCC(N)=O)NC(=O)[C@H](C)NC(=O)[C@H](CCCNC(=N)N)NC(=O)[C@H](CCCNC(=N)N)NC(=O)[C@H](CO)NC(=O)[C@H](CC(=O)O)NC(=O)[C@H](CC(C)C)NC(=O)[C@H](Cc1ccc(O)cc1)NC(=O)[C@H](CCCCN)NC(=O)[C@H](CO)NC(=O)[C@H](Cc1ccc(O)cc1)NC(=O)[C@H](CC(=O)O)NC(=O)[C@H](CO)NC(=O)[C@@H](NC(=O)[C@H](Cc1ccccc1)NC(=O)[C@@H](NC(=O)CNC(=O)[C@H](CCC(N)=O)NC(=O)[C@H](CO)NC(=O)[C@@H](N)Cc1c[nH]cn1)[C@@H](C)O)[C@@H](C)O)C(C)C)C(=O)N[C@H](C(=O)O)[C@@H](C)O)C(=O)O)C(=O)O)C(=O)O)C(=O)O [Example 53, N^ε28-[(4S)-4-[[(4S)-4-[[(4S)-4-[[(4S)-4-acetamido-4-carboxybutanoyl]amino]-4-carboxybutanoyl]amino]-4-carboxybutanoyl]amino]-4-carboxybutanoyl]-[Leu^27,Lys^28]-Glucagon] | 10 | 87 |
| CC(=O)N[C@@H](CCC(=O)N[C@@H](CCC(=O)N[C@@H](CCC(=O)N[C@@H](CCC(=O)NCCCC[C@H](NC(=O)[C@H](C)NC(=O)[C@H](CCCNC(=N)N)NC(=O)[C@H](CCCNC(=N)N)NC(=O)[C@H](CO)NC(=O)[C@H](CC(=O)O)NC(=O)[C@H](CC(C)C)NC(=O)[C@H](Cc1ccc(O)cc1)NC(=O)[C@H](CCCCN)NC(=O)[C@H](CO)NC(=O)[C@H](Cc1ccc(O)cc1)NC(=O)[C@H](CC(=O)O)NC(=O)[C@H](CO)NC(=O)[C@@H](NC(=O)[C@H](Cc1ccccc1)NC(=O)[C@@H](NC(=O)CNC(=O)[C@H](CCC(N)=O)NC(=O)[C@H](CO)NC(=O)[C@@H](N)Cc1c[nH]cn1)[C@@H](C)O)[C@@H](C)O)C(=O)N[C@@H](CC(=O)O)C(=O)N[C@@H](Cc1ccccc1)C(=O)N[C@H](C(=O)N[C@@H](CCC(N)=O)C(=O)N[C@@H](Cc1c[nH]c2ccccc12)C(=O)N[C@@H](CC(C)C)C(=O)N[C@@H](CC(C)C)C(=O)N[C@@H](CO)C(=O)N[C@H](C(=O)O)[C@@H](C)O)C(C)C)C(=O)O)C(=O)O)C(=O)O)C(=O)O [Example 54, N^ε20-[(4S)-4-[[(4S)-4-[[(4S)-4-[[(4S)-4-acetamido-4-carboxybutanoyl]amino]-4-carboxybutanoyl]amino]-4-carboxybutanoyl]amino]-4-carboxybutanoyl]-[Lys^20,Leu^27,Ser^28]-Glucagon] | 45 | 100 |
| CC(=O)N[C@@H](CCC(=O)N[C@@H](CCC(=O)N[C@@H](CCC(=O)N[C@@H](CCC(=O)NCCCC[C@H](NC(=O)[C@@H](NC(=O)[C@H](Cc1ccccc1)NC(=O)[C@H](CC(=O)O)NC(=O)[C@H](CCC(N)=O)NC(=O)[C@H](C)NC(=O)[C@H](CCCNC(=N)N)NC(=O)[C@H](CCCNC(=N)N)NC(=O)[C@H](CC(C)C)NC(=O)[C@H](CC(=O)O)NC(=O)[C@H](CC(C)C)NC(=O)[C@H](Cc1ccc(O)cc1)NC(=O)[C@H](CCCCN)NC(=O)[C@H](CO)NC(=O)[C@H](Cc1ccc(O)cc1)NC(=O)[C@H](CC(=O)O)NC(=O)[C@H](CO)NC(=O)[C@@H](NC(=O)[C@H](Cc1ccccc1)NC(=O)[C@@H](NC(=O)CNC(=O)[C@H](CCC(N)=O)NC(=O)CNC(=O)[C@@H](N)Cc1c[nH]cn1)[C@@H](C)O)[C@@H](C)O)C(C)C)C(=O)N[C@@H](Cc1c[nH]c2ccccc12)C(=O)N[C@@H](CC(C)C)C(=O)N[C@@H](CC(C)C)C(=O)N[C@@H](CO)C(=O)N[C@H](C(=O)O)[C@@H](C)O)C(=O)O)C(=O)O)C(=O)O)C(=O)O [Example 55, N^ε24-[(4S)-4-[[(4S)-4-[[(4S)-4-[[(4S)-4-acetamido-4-carboxybutanoyl]amino]-4-carboxybutanoyl]amino]-4-carboxybutanoyl]amino]-4-carboxybutanoyl]-[Gly^2,Leu^16,Lys^24,Leu^27,Ser^28]-Glucagon] (H-HGQGTFTSDYSKYLDLRRAQDFVK([γGlu-γGlu-γGlu-γGlu-Ac])WLLST-OH) | 45 | 100 |
| CC(=O)N[C@@H](CCC(=O)N[C@@H](CCC(=O)N[C@@H](CCC(=O)N[C@@H](CCC(=O)NCCCC[C@H](NC(=O)[C@@H](NC(=O)[C@H](Cc1ccccc1)NC(=O)[C@H](CC(=O)O)NC(=O)[C@H](C)NC(=O)[C@H](C)NC(=O)[C@H](CCCNC(=N)N)NC(=O)[C@H](CCCNC(=N)N)NC(=O)[C@H](CC(C)C)NC(=O)[C@H](CC(=O)O)NC(=O)[C@H](CC(C)C)NC(=O)[C@H](Cc1ccc(O)cc1)NC(=O)[C@H](CCCNC(=N)N)NC(=O)[C@H](CO)NC(=O)[C@H](Cc1ccc(O)cc1)NC(=O)[C@H](CC(=O)O)NC(=O)[C@H](CO)NC(=O)[C@@H](NC(=O)[C@H](Cc1ccccc1)NC(=O)[C@@H](NC(=O)CNC(=O)[C@H](CCC(N)=O)NC(=O)[C@H](CO)NC(=O)[C@@H](N)Cc1c[nH]cn1)[C@@H](C)O)[C@@H](C)O)C(C)C)C(=O)N[C@@H](Cc1c[nH]c2ccccc12)C(=O)N[C@@H](CC(C)C)C(=O)N[C@@H](CC(C)C)C(=O)N[C@@H](CO)C(=O)N[C@H](C(=O)O)[C@@H](C)O)C(=O)O)C(=O)O)C(=O)O)C(=O)O [Example 56, N^ε24-[(4S)-4-[[(4S)-4-[[(4S)-4-[[(4S)-4-acetamido-4-carboxybutanoyl]amino]-4-carboxybutanoyl]amino]-4-carboxybutanoyl]amino]-4-carboxybutanoyl]-[Arg^12,Leu^16,Ala^20,Lys^24,Leu^27,Ser^28]-Glucagon] (H-HSQGTFTSDYSRYLDLRRAADFVK([γGlu-γGlu-γGlu-γGlu-Ac])WLLST-OH) | 45 | 100 |
